Source: patent publication US9433687B2, “Anti-Notch3 antibodies and antibody-drug conjugates” (Pfizer Inc., priority 2012, dated 2016)
Several values for one entry are separate records, joined by “and”; a condition that tells them apart may be missing. Equal entries are not always repeated.

Experiments:
HCC2429 (lung cancer) = experiment: In vitro cytotoxicity (MTS), HCC2429; format: cell-based, human; conditions: Table 14; two individual repeats; LP = lacked potency
Protocol: The effects of anti-Notch3 ADCs were assessed on 1) cell lines endogenously expressing Notch3 protein: HCC2429 (lung cancer), OVCAR3 (ovarian cancer) and MDA-MB-468 (breast cancer), 2) cell lines engineered to over-express full length human Notch3 protein: MDA-MB-468/hNotch3 and U2OS/hNotch3, and 3) a negative control cell line (SW900) using an MTS cellular viability indicator (Promega, Madison, Wis.). These cell lines were cultured with increasing concentrations of anti-Notch3 ADCs comprising rat-human chimeric anti-Notch3 antibodies, ch28 and ch75, and humanized anti-Notch3 antibodies, hu28 and hu75, conjugated to various linker-payload combinations of the present invention. As a specificity control for the anti-Notch3-ADCs, non-targeted control-ADCs (huNeg8.8-ADCs or ch2H6-ADCs) were also tested on the same cell lines. After four days, viability of each culture was assessed. IC50 values were calculated by logistic non-linear regression, model #203 with XL fit v4.2 (IDBS, Guildford, Surry, UK) and presented as ng Ab/mL. The drug antibody ratio (DAR) is also provided.
This process generated the anti-Notch3 cysteine mutant ADCs: hu28-(L443C)-vc0101 and hu28-(L443C/κK183C)-vc0101. The activity of the anti-Notch3 cysteine mutant ADCs were assessed on cell lines endogenously expressing Notch3 protein: HCC2429 (lung cancer) and OVCAR3 (ovarian cancer) using an MTS cellular viability indicator as described in previous Examples.

N87 gastric xenografts = experiment: N87 gastric xenograft model; format: in vivo, mouse; conditions: Table 27 study
Protocol: Similar in vivo experiments were performed with the N87 gastric cancer cell line as described above. To generate xenografts, nude (Nu/Nu) female mice were implanted subcutaneously with 8×10^6 N87 cells in 50% Matrigel (BD Biosciences).
The N87 gastric model was also dosed intravenously Q4d×4 with PBS vehicle, rat-human chimeric anti-Notch3 ADCs and control huNeg-8.8 ADCs, at a dose of 5 mg/kg as provided in FIG. 16D.
The N87 gastric model was also dosed intravenously Q4d×4 with PBS vehicle and rat-human chimeric anti-Notch3 ADCs ch28-mc0131, ch75-mc0131, ch28-m(H2O)c-0131 and ch75-m(H2O)c-0131 at a dose of 5 mg/kg as provided in FIG. 16E.

HCC2429 = molecular target: T1, HCC2429 (Homo sapiens, UniProt Q9UM47); experiment: Cytotoxicity (MTS) after control or Notch3 siRNA, HCC2429; format: cell-based; conditions: 96 hours, LP = lacked potency
T1 construct: endogenous Notch3 expressing cell lines, HCC2429 and MDA-MB-468; endogenous in cells; host or cells: HCC2429
T1 sequence (Q9UM47 40-2321): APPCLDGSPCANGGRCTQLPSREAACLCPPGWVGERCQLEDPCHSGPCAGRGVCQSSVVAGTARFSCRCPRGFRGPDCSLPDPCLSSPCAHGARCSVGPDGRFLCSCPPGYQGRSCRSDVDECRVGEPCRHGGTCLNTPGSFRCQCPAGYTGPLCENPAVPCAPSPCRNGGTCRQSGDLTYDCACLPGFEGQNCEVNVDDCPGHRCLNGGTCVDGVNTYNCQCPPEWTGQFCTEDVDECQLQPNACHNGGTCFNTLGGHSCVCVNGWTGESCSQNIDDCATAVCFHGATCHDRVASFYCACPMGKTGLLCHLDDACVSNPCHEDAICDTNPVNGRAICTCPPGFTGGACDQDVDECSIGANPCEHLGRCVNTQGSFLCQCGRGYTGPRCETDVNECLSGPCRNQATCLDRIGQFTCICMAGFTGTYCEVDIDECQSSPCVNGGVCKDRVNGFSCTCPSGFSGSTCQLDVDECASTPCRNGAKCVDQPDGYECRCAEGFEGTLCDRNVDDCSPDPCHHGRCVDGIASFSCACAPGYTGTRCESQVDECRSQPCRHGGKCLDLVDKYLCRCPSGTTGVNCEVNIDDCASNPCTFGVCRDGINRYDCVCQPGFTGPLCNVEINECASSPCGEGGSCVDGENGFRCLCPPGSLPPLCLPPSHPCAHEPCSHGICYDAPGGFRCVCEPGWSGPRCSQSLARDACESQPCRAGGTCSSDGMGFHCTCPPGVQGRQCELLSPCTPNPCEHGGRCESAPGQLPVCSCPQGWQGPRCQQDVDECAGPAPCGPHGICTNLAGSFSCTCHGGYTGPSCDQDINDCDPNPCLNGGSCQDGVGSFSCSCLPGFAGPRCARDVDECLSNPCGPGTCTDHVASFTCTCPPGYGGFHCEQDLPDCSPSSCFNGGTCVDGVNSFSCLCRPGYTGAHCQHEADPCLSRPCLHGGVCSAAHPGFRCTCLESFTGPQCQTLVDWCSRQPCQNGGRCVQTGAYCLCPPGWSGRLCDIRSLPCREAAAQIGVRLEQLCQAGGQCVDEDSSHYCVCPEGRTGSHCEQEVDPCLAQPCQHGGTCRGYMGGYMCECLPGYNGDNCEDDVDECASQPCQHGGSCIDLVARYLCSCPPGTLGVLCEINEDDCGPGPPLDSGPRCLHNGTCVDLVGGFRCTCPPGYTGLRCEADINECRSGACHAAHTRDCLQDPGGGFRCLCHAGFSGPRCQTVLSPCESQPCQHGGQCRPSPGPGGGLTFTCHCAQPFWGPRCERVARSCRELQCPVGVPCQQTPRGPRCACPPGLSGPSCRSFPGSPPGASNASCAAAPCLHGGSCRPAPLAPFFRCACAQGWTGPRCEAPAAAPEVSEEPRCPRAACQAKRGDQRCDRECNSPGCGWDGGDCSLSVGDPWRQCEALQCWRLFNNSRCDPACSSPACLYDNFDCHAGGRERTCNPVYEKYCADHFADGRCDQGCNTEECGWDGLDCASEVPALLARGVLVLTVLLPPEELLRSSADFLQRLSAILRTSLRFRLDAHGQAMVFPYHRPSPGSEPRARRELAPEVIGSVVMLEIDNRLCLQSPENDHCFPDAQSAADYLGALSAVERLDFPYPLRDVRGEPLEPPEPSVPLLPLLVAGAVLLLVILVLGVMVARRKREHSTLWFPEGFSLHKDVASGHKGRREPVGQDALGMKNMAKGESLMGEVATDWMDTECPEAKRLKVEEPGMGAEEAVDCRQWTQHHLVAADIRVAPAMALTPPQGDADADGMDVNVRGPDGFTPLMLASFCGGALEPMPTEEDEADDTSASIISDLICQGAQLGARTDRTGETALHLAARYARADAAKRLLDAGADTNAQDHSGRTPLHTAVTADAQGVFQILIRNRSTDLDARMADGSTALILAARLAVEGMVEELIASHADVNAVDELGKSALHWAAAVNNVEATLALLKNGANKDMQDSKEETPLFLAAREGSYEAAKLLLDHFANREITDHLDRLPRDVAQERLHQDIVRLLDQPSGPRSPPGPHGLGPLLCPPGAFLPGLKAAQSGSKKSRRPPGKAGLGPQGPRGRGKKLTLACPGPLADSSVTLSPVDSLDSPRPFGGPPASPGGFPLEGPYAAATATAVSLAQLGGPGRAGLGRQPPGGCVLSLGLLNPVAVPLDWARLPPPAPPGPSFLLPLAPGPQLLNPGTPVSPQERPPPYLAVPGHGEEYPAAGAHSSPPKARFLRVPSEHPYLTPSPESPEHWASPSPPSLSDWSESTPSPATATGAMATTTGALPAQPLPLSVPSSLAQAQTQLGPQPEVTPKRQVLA
Protocol: Notch3 knockdown with siRNAs was used to confirm that the in vitro cytotoxicity of anti-Notch3 ADCs was dependent on the expression of the Notch3 protein. siRNA transfections were generated using ON-TARGET plus SMART pool human Notch3 (L-011093-00), ON-TARGET plus Control Non-Targeting pool (D-001810-10) (Thermo Scientific Dharmacon) and Lipofectamine RNAiMAX Reagent (Invitrogen). Two to 2.5×10^6 cells of HCC2429, OVCAR3 and MDA-MB-468/hNotch3 cells were plated in 10 cm dishes in growth medium without antibiotics the day before transfection. The next day fresh medium without antibiotics was added. The siRNAs and the Lipofectamine RNAiMAX were diluted in OPTI-MEM media and used as per the manufacturer's specifications. Each of the cell lines was transfected with control and Notch3 siRNAs. The cells were incubated with the transfection mixture for 24 hours in a humidified, 37° C., 5% CO2 incubator. After 24 hours, cells were trypsinized and plated for assessment using MTS cellular viability indicator (Promega, Madison, Wis.).
Depending on the cell line, cells were then seeded at a density of 2,500 to 5,000 cells per well 24 hours before treatment. Cells were treated with 3-fold serially diluted humanized anti-Notch3 ADCs in triplicates at 10 concentrations (range 0-30 μg Ab/ml). […] For experiments with 2 individual repeats, average IC50 values were calculated along with standard error of the mean (S.E.M.). Western blot analysis on extracts prepared from control and Notch3 siRNA-treated cells was performed to confirm that Notch3 knockdown occurred for up to 144 hours (data not shown). Cell lines that expressed Notch3 (herein termed control siRNA) or had reduced Notch3 expression after siRNA knockdown (herein termed Notch3 siRNA) were cultured with increasing concentrations of humanized anti Notch3 ADCs. As a specificity control for the anti-Notch3 ADCs, non-targeted control-ADCs (huNeg8.8-ADCs) were also tested on the same cell lines. After four days, viability of each culture was assessed. IC50 values were calculated by logistic non-linear regression, model #203 with XL fit v4.2 (IDBS, Guildford, Surry, UK) and presented as ng Ab/mL. The drug antibody ratio (DAR) is also provided.

B1: hu28-vc6780 (conjugate)
heavy: EVQLVESGGGLVQPGGSLRLSCAASGFTFRDYGMTWVRQAPGKGLEWVAYISSGSNYIYYAEAVKGRFTISRDNAKNSLYLQMNSLRAEDTAVYYCARRGPFVLDAWGQGTLVTVSS[letters of human IgG1 constant region omitted]
light: DIQMTQSPSSLSASVGDRVTITCKASQSINRYLHWYQQKPGKAPKLLIYNANGLQTGVPSRFSGSGSGTDFTLTISSLQPEDFATYYCLQHNTWPDTFGGGTKVEIKRTVAAPSVFIFPPSDEQLKSGTASVVCLLNNFYPREAKVQWKVDNALQSGNSQESVTEQDSKDSTYSLSSTLTLSKADYEKHKVYACEVTHQGLSSPVTKSFNRGEC
HCC2429 (lung cancer)
  IC50 (ng Ab/mL), HCC2429: 148 ng Ab/mL and 2050 ng Ab/mL
N87 gastric xenografts; DAY 4, dose 1 mg/kg intravenously Q4d×4
  tumor volume: 560 mm^3
N87 gastric xenografts; DAY 4, dose 3 mg/kg intravenously Q4d×4
  tumor volume: 552 mm^3
N87 gastric xenografts; DAY 4, dose 10 mg/kg intravenously Q4d×4
  tumor volume: 434 mm^3
N87 gastric xenografts; DAY 8, dose 1 mg/kg intravenously Q4d×4
  tumor volume: 592 mm^3
N87 gastric xenografts; DAY 8, dose 3 mg/kg intravenously Q4d×4
  tumor volume: 545 mm^3
N87 gastric xenografts; DAY 8, dose 10 mg/kg intravenously Q4d×4
  tumor volume: 379 mm^3
N87 gastric xenografts; DAY 11, dose 1 mg/kg intravenously Q4d×4
  tumor volume: 617 mm^3
N87 gastric xenografts; DAY 11, dose 3 mg/kg intravenously Q4d×4
  tumor volume: 511 mm^3
N87 gastric xenografts; DAY 11, dose 10 mg/kg intravenously Q4d×4
  tumor volume: 315 mm^3
N87 gastric xenografts; DAY 14, dose 1 mg/kg intravenously Q4d×4
  tumor volume: 782 mm^3
N87 gastric xenografts; DAY 14, dose 3 mg/kg intravenously Q4d×4
  tumor volume: 564 mm^3
N87 gastric xenografts; DAY 14, dose 10 mg/kg intravenously Q4d×4
  tumor volume: 292 mm^3
N87 gastric xenografts; DAY 18, dose 1 mg/kg intravenously Q4d×4
  tumor volume: 797 mm^3
N87 gastric xenografts; DAY 18, dose 3 mg/kg intravenously Q4d×4
  tumor volume: 479 mm^3
N87 gastric xenografts; DAY 18, dose 10 mg/kg intravenously Q4d×4
  tumor volume: 199 mm^3
N87 gastric xenografts; DAY 21, dose 1 mg/kg intravenously Q4d×4
  tumor volume: 839 mm^3
N87 gastric xenografts; DAY 21, dose 3 mg/kg intravenously Q4d×4
  tumor volume: 499 mm^3
N87 gastric xenografts; DAY 21, dose 10 mg/kg intravenously Q4d×4
  tumor volume: 194 mm^3
N87 gastric xenografts; DAY 25, dose 1 mg/kg intravenously Q4d×4
  tumor volume: 878 mm^3
N87 gastric xenografts; DAY 25, dose 3 mg/kg intravenously Q4d×4
  tumor volume: 588 mm^3
N87 gastric xenografts; DAY 25, dose 10 mg/kg intravenously Q4d×4
  tumor volume: 181 mm^3
N87 gastric xenografts; DAY 28, dose 1 mg/kg intravenously Q4d×4
  tumor volume: 904 mm^3
N87 gastric xenografts; DAY 28, dose 3 mg/kg intravenously Q4d×4
  tumor volume: 672 mm^3
N87 gastric xenografts; DAY 28, dose 10 mg/kg intravenously Q4d×4
  tumor volume: 204 mm^3
N87 gastric xenografts; DAY 33, dose 1 mg/kg intravenously Q4d×4
  tumor volume: 1043 mm^3
N87 gastric xenografts; DAY 33, dose 3 mg/kg intravenously Q4d×4
  tumor volume: 786 mm^3
N87 gastric xenografts; DAY 33, dose 10 mg/kg intravenously Q4d×4
  tumor volume: 196 mm^3
N87 gastric xenografts; DAY 36, dose 1 mg/kg intravenously Q4d×4
  tumor volume: 1108 mm^3
N87 gastric xenografts; DAY 36, dose 3 mg/kg intravenously Q4d×4
  tumor volume: 827 mm^3
N87 gastric xenografts; DAY 36, dose 10 mg/kg intravenously Q4d×4
  tumor volume: 189 mm^3
HCC2429; Control siRNA
  IC50 (ng Ab/mL) ± S.E.M., HCC2429 Control siRNA: 259 ± 179 ng Ab/mL
HCC2429; Notch3 siRNA knockdown
  IC50 (ng Ab/mL) ± S.E.M., HCC2429 Notch3 siRNA: 14120 ± 1175 ng Ab/mL
